The shares of active, inactive and inconclusive entries below differ from those in the screen. Activity calls are given as the source filed them. Calls follow the shape of the dose curve; as a rule, active = well fitted curve in either direction with a large enough effect (not every such curve was filed as active); inconclusive = small, poorly fitted or top-dose-only effect, or another doubt; inactive = flat fitted curve, though single readings scatter.
experiment: NFAT Signaling Pathway (AID 444); conditions: Jurkat NFAT-bla M1, carbachol, beta-lactamase ratio, 5 h; at 17.2 µM (top of the series) unless noted;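 also: carbachol stimulus at about its EC50 of 1 µM final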
How it was run: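 Jurkat cells with NFAT-driven β-lactamase reporter and co-expressed M1 receptor, stimulated with carbachol (final 1 uM, ~EC50), compound titration, 5 h at 37 °C. CCF4 loaded 1 h at RT; 460/530 nm ratio gave %activity and AC50.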
% is scaled to controls: 0 for no effect and ±100 for the full control effect.

SMILES | activity change, negative = inhibition
O=C(O)/C=C\C(=O)Nc1ccc2c(c1)-c1ccccc1C2 | inactive: 6.68% [at 7.69 µM]
COc1cc2nc(N3CCN(C(=O)[C@H]4COc5ccccc5O4)CC3)nc(N)c2cc1OC | inconclusive: -41% [inhibitor] [at 38 µM]
COc1ccc(C(=O)N/N=C2/C(=O)c3c(C)cc(C)cc3CC2(C)C)cc1 | inconclusive: -55.3% [inhibitor] [at 7.69 µM]
COc1ccc2c3c([nH]c2c1)[C@@H]1C[C@@H]2[C@@H](C[C@H](O)[C@H](OC)[C@H]2C(=O)O)CN1CC3 | inactive: -14.4%
Cn1cccc1C(=O)N1CCC2(CC1)CN(C(c1ccccc1)c1ccccc1)C2 | inactive: -18.7% [at 7.69 µM]
NC(CSS(=O)(=O)O)=N[C@@H]1C[C@H]2CC[C@@H]1C2 | inconclusive: -33.8% [inhibitor] [at 7.69 µM]
C[C@@H](CNC(N)=O)NC(N)=O | inactive: 12.2% [at 7.69 µM]
CN1CCN(c2ncncc2-c2cccnc2)CC1 | inactive: -6.42% [at 7.69 µM]
O=C(CCN1CCCCC1)c1csc2ccccc12 | inconclusive: -82.8% [inhibitor] [at 7.69 µM]
O[C@H](CN1CCN(c2cccc(Cl)c2)CC1)C(c1ccccc1)c1ccccc1 | inconclusive: -47.3% [inhibitor] [at 38 µM]
Cc1cc(Cl)nc2ccc(Cc3ccc4nc(Cl)cc(C)c4c3)cc12 | inconclusive: -45% [inhibitor] [at 7.69 µM]
O=C(c1cccc(F)c1)N1CCC2(CCN(Cc3ccccc3)CC2)CC1 | inconclusive: -66.7% [inhibitor] [at 7.69 µM]

Source: PubChem BioAssay (NCATS)
